# In the supplement of paper PMC8728848:
# This is one part of the list.
# Experiments:
# Assay in all cases: glycan array binding signal (z-score within array); higher = stronger binding
# Details in all cases: glycan notation: IUPAC condensed, linker removed
# [1] = target: Man(a1-2)Man(a1-2)Man(a1-3)[Man(a1-2)Man(a1-3)[Man(a1-2)Man(a1-6)]Man(a1-6)]Man(b1-4)GlcNAc(b1-4)GlcNAc
# Outline: (§1)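 From the Consortium for Functional Glycomics database, 3228 arrays were curated, keeping only those whose protein sequence was available. Binding is given as a within-array Z-score averaged across arrays sharing a protein sequence and across linkers. Negative Z-scores can be read as non-binding.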
# [2] = target: Man(a1-2)Man(a1-2)Man(a1-3)[Man(a1-2)Man(a1-6)[Man(a1-3)]Man(a1-6)]Man(b1-4)GlcNAc(b1-4)GlcNAc
# Outline: as §1
# [3] = target: Man(a1-2)Man(a1-2)Man(a1-3)[Man(a1-3)[Man(a1-6)]Man(a1-6)]Man(b1-4)GlcNAc(b1-4)GlcNAc
# Outline: as §1
# [4] = target: Man(a1-2)Man(a1-3)[Man(a1-2)Man(a1-6)[Man(a1-3)]Man(a1-6)]Man(b1-4)GlcNAc(b1-4)GlcNAc
# Outline: as §1
# [5] = target: Man(a1-2)Man(a1-3)[Man(a1-3)[Man(a1-6)]Man(a1-6)]Man(b1-4)GlcNAc(b1-4)GlcNAc
# Outline: as §1
# Man(a1-3)Man = target: Man(a1-3)Man
# Outline: as §1
# [6] = target: Man(a1-3)Man(a1-6)[Man(a1-3)]Man(b1-4)GlcNAc(b1-4)GlcNAc
# Outline: as §1
# Man(a1-3)Man(b1-4)GlcNAc = target: Man(a1-3)Man(b1-4)GlcNAc
# Outline: as §1
# Man(a1-3)[Man(a1-6)]Man = target: Man(a1-3)[Man(a1-6)]Man
# Outline: as §1
# [7] = target: Man(a1-3)[Man(a1-6)]Man(a1-6)Man(b1-4)GlcNAc(b1-4)GlcNAc
# Outline: as §1
# [8] = target: Man(a1-3)[Man(a1-6)]Man(a1-6)[Man(a1-3)]Man
# Outline: as §1
# [9] = target: Man(a1-3)[Man(a1-6)]Man(a1-6)[Man(a1-3)]Man(b1-4)GlcNAc(b1-4)GlcNAc
# Outline: as §1
# [10] = target: Man(a1-3)[Man(a1-6)]Man(b1-4)GlcNAc(b1-4)GlcNAc
# Outline: as §1
# [11] = target: Man(a1-3)[Man(a1-6)]Man(b1-4)GlcNAc(b1-4)[Fuc(a1-6)]GlcNAc
# Outline: as §1
# Man(a1-6)Man = target: Man(a1-6)Man
# Outline: as §1
# [12] = target: Man(a1-6)Man(b1-4)GlcNAc(b1-4)GlcNAc
# Outline: as §1
# Man(b1-4)GlcNAc = target: Man(b1-4)GlcNAc
# Outline: as §1
# [13] = target: Man(b1-4)Man(b1-4)Man(b1-4)Man
# Outline: as §1
# [14] = target: Man(b1-4)Man(b1-4)Man(b1-4)Man(b1-4)Man
# Outline: as §1
# [15] = target: Man(b1-4)Man(b1-4)Man(b1-4)Man(b1-4)Man(b1-4)Man
# Outline: as §1
# [16] = target: Man6P(a1-3)Man(a1-3)Man(a1-3)Man(a1-2)Man
# Outline: as §1
# Neu(a2-3)Gal(b1-4)Glc = target: Neu(a2-3)Gal(b1-4)Glc
# Outline: as §1
# [17] = target: Neu(a2-3)Gal(b1-4)GlcNAc(b1-3)Gal(b1-4)[Fuc(a1-3)]GlcNAc(b1-3)Gal(b1-4)Glc
# Outline: as §1
# [18] = target: Neu(a2-3)Gal(b1-4)GlcNAc6S(b1-3)Gal(b1-4)Glc
# Outline: as §1
# [19] = target: Neu(a2-3)Gal(b1-4)[Fuc(a1-3)]GlcNAc(b1-3)Gal(b1-4)Glc
# Outline: as §1
# [20] = target: Neu(a2-3)Gal(b1-4)[Fuc(a1-3)]GlcNAc6S(b1-3)Gal(b1-4)Glc
# Outline: as §1
# [21] = target: Neu(a2-3)Gal6S(b1-4)[Fuc(a1-3)]GlcN(b1-3)Gal(b1-4)Glc
# Outline: as §1
# Neu(a2-6)Gal(b1-4)Glc = target: Neu(a2-6)Gal(b1-4)Glc
# Outline: as §1
# [22] = target: Neu4Ac5Ac(a2-3)Gal(b1-4)Glc
# Outline: as §1
# [23] = target: Neu4Me5Ac(a2-3)Gal(b1-4)Glc
# Outline: as §1
# Neu5Ac(a2-2)Glc = target: Neu5Ac(a2-2)Glc
# Outline: as §1
# [24] = target: Neu5Ac(a2-3)4dGal(b1-4)[Fuc(a1-3)]GlcNAc(b1-3)Gal
# Outline: as §1
# [25] = target: Neu5Ac(a2-3)6dGal(b1-4)[Fuc(a1-3)]GlcNAc(b1-3)Gal
# Outline: as §1
# Neu5Ac(a2-3)Gal = target: Neu5Ac(a2-3)Gal
# Outline: as §1
# [26] = target: Neu5Ac(a2-3)Gal(b1-3)6dGalNAc
# Outline: as §1
# [27] = target: Neu5Ac(a2-3)Gal(b1-3)GalNAc
# Outline: as §1
# [28] = target: Neu5Ac(a2-3)Gal(b1-3)GalNAc(b1-4)[Neu5Ac(a2-3)]Gal(b1-4)Glc
# Outline: as §1
# [29] = target: Neu5Ac(a2-3)Gal(b1-3)GalNAc(b1-4)[Neu5Ac(a2-8)Neu5Ac(a2-3)]Gal(b1-4)Glc
# Outline: as §1
# [30] = target: Neu5Ac(a2-3)Gal(b1-3)GalNAc6S
# Outline: as §1
# [31] = target: Neu5Ac(a2-3)Gal(b1-3)GalNAc6S(b1-4)Gal(b1-4)Glc
# Outline: as §1
# [32] = target: Neu5Ac(a2-3)Gal(b1-3)GlcNAc
# Outline: as §1
# [33] = target: Neu5Ac(a2-3)Gal(b1-3)GlcNAc(b1-3)Gal(b1-4)Glc
# Outline: as §1
# [34] = target: Neu5Ac(a2-3)Gal(b1-3)GlcNAc(b1-3)[Fuc(a1-3)[Gal(b1-4)]GlcNAc(b1-6)]Gal(b1-4)Glc
# Outline: as §1
# [35] = target: Neu5Ac(a2-3)Gal(b1-3)[Fuc(a1-3)]GlcN(b1-3)Gal(b1-4)Glc
# Outline: as §1
# [36] = target: Neu5Ac(a2-3)Gal(b1-3)[Fuc(a1-4)]GlcNAc
# Outline: as §1
binder,measurement,setting,value
"ZG16p (Homo sapiens), O60844 (protein) ARSSSYSGEYGGGGGKRFSHSGNQLDGPITALRVRVNTYYIVGLQVRYGKVWSDYVGGRNGDLEEIFLHPGESVIQVSGKYKWYLKKLLFVTDKGRYLSFGKDSGTSFNAVPLHPNTVLRFISGRSGSLIDAIGLHWDVYPSSCSRC",glycan array binding signal (z-score),[1],-0.13
same,glycan array binding signal (z-score),[2],-0.309
same,glycan array binding signal (z-score),[3],0.487
same,glycan array binding signal (z-score),[4],-0.202
same,glycan array binding signal (z-score),[5],-0.213
same,glycan array binding signal (z-score),Man(a1-3)Man,2.78
same,glycan array binding signal (z-score),[6],0.158
same,glycan array binding signal (z-score),Man(a1-3)Man(b1-4)GlcNAc,2.31
same,glycan array binding signal (z-score),Man(a1-3)[Man(a1-6)]Man,1.31
same,glycan array binding signal (z-score),[7],-0.192
same,glycan array binding signal (z-score),[8],1.19
same,glycan array binding signal (z-score),[9],0.103
same,glycan array binding signal (z-score),[10],0.764
same,glycan array binding signal (z-score),[11],0.796
same,glycan array binding signal (z-score),Man(a1-6)Man,0.107
same,glycan array binding signal (z-score),[12],0.162
same,glycan array binding signal (z-score),Man(b1-4)GlcNAc,-0.415
same,glycan array binding signal (z-score),[13],-0.328
same,glycan array binding signal (z-score),[14],-0.328
same,glycan array binding signal (z-score),[15],-0.328
same,glycan array binding signal (z-score),[16],1.46
same,glycan array binding signal (z-score),Neu(a2-3)Gal(b1-4)Glc,-0.225
same,glycan array binding signal (z-score),[17],-0.328
same,glycan array binding signal (z-score),[18],-0.261
same,glycan array binding signal (z-score),[19],-0.328
same,glycan array binding signal (z-score),[20],-0.275
same,glycan array binding signal (z-score),[21],-0.328
same,glycan array binding signal (z-score),Neu(a2-6)Gal(b1-4)Glc,-0.182
same,glycan array binding signal (z-score),[22],-0.253
same,glycan array binding signal (z-score),[23],-0.328
same,glycan array binding signal (z-score),Neu5Ac(a2-2)Glc,-0.264
same,glycan array binding signal (z-score),[24],-0.328
same,glycan array binding signal (z-score),[25],-0.328
same,glycan array binding signal (z-score),Neu5Ac(a2-3)Gal,-0.328
same,glycan array binding signal (z-score),[26],-0.32
same,glycan array binding signal (z-score),[27],-0.328
same,glycan array binding signal (z-score),[28],-0.328
same,glycan array binding signal (z-score),[29],-0.328
same,glycan array binding signal (z-score),[30],-0.328
same,glycan array binding signal (z-score),[31],-0.328
same,glycan array binding signal (z-score),[32],-0.207
same,glycan array binding signal (z-score),[33],-0.328
same,glycan array binding signal (z-score),[34],-0.328
same,glycan array binding signal (z-score),[35],-0.328
same,glycan array binding signal (z-score),[36],-0.319
